Values marked as one replicate rest on one cluster of the flow cell; about a third of the high ones do not repeat.
Test system: ATP
Experiment: switch fluorescence ratio, 500 uM ATP over buffer (Cy3 cluster intensity, sum of 5 cycles each) (fold (ratio)); higher = stronger signal-on switching upon ATP binding; sequences stand for … in TCGTCGGCAGCGTCAGATGTGTATAAGAGACAGTTTTTTTTTTTTTTTTTTTTTTTTT…TC
Conditions: aptamer strand: ATP DNA aptamer (quencher-CACCTGGGGGAGTATTGCGGAGGAAGG + anchor), 100 nM annealed; ATP concentration: 500 uM; one replicate
Procedure, shortened: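 The fluorescence ratio divides summed target-cycle Cy3 intensity by summed buffer-cycle Cy3 intensity for each cluster and is averaged per switch-domain sequence. Cy3-labelled switching-strand clusters on a modified Illumina MiSeq flow-cell were annealed to 100 nM quencher-labelled ATP aptamer, then imaged in selection buffer and again after 15 min with 500 uM ATP at 22 °C. Five such cycles were run, with NaOH stripping and re-annealing between them, and clusters outside 100-1000 RFU were excluded.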
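Further: ATP exposure 15 min at 22 °C before imaging.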

Sequence	switch fluorescence ratio
GCTGTCCGCC	1.24
CACGTCTGCA	1.12
GGCTAGGGCC	1.02
TCGAGAATGA	0.995
ATTGCTCAGC	1.07
GAGGTCTTA	0.959
TGGTTGTGAC	0.997
TCCAAAGCTT	1.25
TTTGAGGGT	0.985
GGCATTTTCG	1.04
TGCGCGTGCT	1.02
ATGCGTTTCG	0.991
ACCTCATGTT	1.01
GTAGCACAGT	1.04
ATGGTTCCCG	1.01
AATTCTCGGC	0.987
GCACCCTTT	1.03
GTTGGCAAGA	0.981
GCGTTCGGTA	0.989
CATAGTAGC	0.968
CATCGCGAGA	1.09
AACTCAGGGC	1.01
ACTATTCACA	1.13
AGTAAAAG	1.03
TCATAGCTTA	0.978
ATCTTGTATT	0.985

Sequence	switch fluorescence ratio
AGTTCGCGAC	1.03
ACTTGGAAGA	1.01
TCATAACGGG	0.995
TAGCGCGGC	1.01
CAACGCATGT	1.12
AAGCACAGTT	1.16
AACGAGTCTC	1.02
TCTGTAA	1.09
TTGTGTGATA	0.988
ATCCAAAGTT	1.03
AAGACCCAGT	0.97
TTCAATCG	0.963
GAGTGATACG	1.11
AGTAGATGA	1
TAATTTAAAC	0.988
AAAAACAATT	0.956
GAATATTGTT	0.969
CTATTCCTGC	0.981
TTCCCCGTAG	1.44
AAATACCAA	0.985
CGAGGCCCGC	1.09
TATTTCAGGG	0.995
CGGAAGGTGA	1.2
GTTGCATAG	1
CACAGAGCCC	1.04
CGGTACAAGC	1.06

Sequence	switch fluorescence ratio
GAAACTACAT	1.04
CATTGATGTA	1.02
TTTTAATCT	1.02
CCTAGTCAAT	3.97
AACAGTTGGA	1
AGTATCTTTT	1.02
CCATGGGGTT	0.979
CTGCCACGGA	1.02
GAAGACTCGT	0.954
ACAGCATTCG	1.06
ACTTTTATGT	1.03
ACTATATGA	1.05
GGGTGTTTGA	1.04
ACGACAGGAT	1.08
GCCCTAGCA	0.994
CAGTCGTCGT	1.04
GCAGTGGGAA	1.02
AGATTGTGGC	0.963
AAAAGGTTCA	0.991
TTCTCCTTGG	1.43
CACACAGGCT	1.09
AAATGTATAC	1.04
TCTGGGATGA	0.924
AGTACTAGTT	0.98
TTATAGCTGG	0.973
CCGAGAGTTT	1.1

Sequence	switch fluorescence ratio
TTCCCCAAT	1.17
TATTCCACCA	1.07
TTTAATCAGA	1.04
GACTCAGCTG	1.04
CGGCAGCTCG	0.965
CGCCGTAATA	4.47
AGAGCCCCAA	0.976
TCTTACATT	0.985
CTGAAGCCAG	1.26
AACGTGAACC	1.18
GAATTCCGGT	0.995
TCAATTCTAG	0.942
GAGAGCGTTA	0.978
ATCGGCCTCT	0.955
TCAGTAAAGC	1
TATCGTTCCT	1.16
ATACGACCTT	1.58
GCTCTTTCAC	1.06
GTTTAATGTA	1.03
AATGTTTACG	0.957
GTGGACATGT	0.928
TGGAAAATCC	0.99
ATAAAAATGT	1.01
TCAGCCGACG	1.09
GCTATGCTCC	3.1
ACTGATCTGG	1.02

Sequence	switch fluorescence ratio
TGAATTACTG	1.06
CCGGCCAGGG	1.57
TCCATCCGGT	1.16
AGGTAGCACT	1.03
ACAGATCTGT	0.998
AGTCTCTTGG	0.97
GTTAATAGTT	1
GTGAAGCGAG	1.03
CGTATAATTC	1.02
CATGCTCGAG	0.997
CGATTTTGCT	0.986
GGAGTTAG	0.999
TTGTAATGCG	0.977
AGCGTGTATC	1.02
TACGCCCGAA	1.02
ACTTGATAAC	1.02
GATGACATGT	0.972
CCATAGTCGT	1.03
TATCCAGTAA	2.2
GGAGGTGTTT	1.05
TTAAAAACAA	1.02
CCTTTTGGGA	0.968
CGGTATGACT	0.935
AGTGAATGTA	1.01
CGAGGAGACT	1
GCTATGTATG	0.937

Sequence	switch fluorescence ratio
ATCAAGAGGC	1.01
GGCAGTGC	1.27
CGCGTTAATC	1.08
TTTCCATCCG	1.31
CCTGCACGAG	1.31
GTGAGGGATC	1.04
TGGCTACACA	1.07
CATAAATCAT	1.01
TTTGGAAGTG	0.967
AGTGGATTTA	1.01
ATTTACGGGC	1.1
CTCTCCATAA	1.37
TGCGGCGTGG	0.994
GGGGGCATG	0.99
GGCGGGTTCA	0.99
GATGCCAGCG	0.949
AGAAAGGGAT	1
GGTCATGTAC	1.04
GTGATGAGAG	0.988
AATCGCAAAG	1.01
CCTATAATC	1.02
CTGAGAAGGA	0.968
GCAGAGGTTT	1.01
CAACTCACAC	1.3
AATGTTTGT	0.993
AGGTACTCCC	1.4

Sequence	switch fluorescence ratio
TAATAAGCTA	1.02
TGCGGTAGTC	0.937
TATACCCGAA	1.05
GCGGTATTGA	0.985
CCGGTACAAG	1.11
GTCGCTTTTC	1.03
ACTTCGGTCA	1.05
TGAGATTCCG	1.01
CCGGTCGTAT	1.09
TGCATGCT	0.985
CTCTGGAGAA	1.09
GCAGGGTGTT	1.11
AAATCACGAG	1.04
CCTCCTTCCC	1.94
AGAAACGGTG	1.17
TCCTCGCGAA	4.8
ACCATTTGTT	1.02
AGTGCATATA	1.01
TTTGAAATTG	1.05
CAGCTCTTGC	0.97
CGTAGGGATG	0.944
CGTATATG	1.05
CCGTAGCCGT	1.16
ATAGACTTGG	1.01
CTAAGTAACT	1.03
TCTTGTTCAT	1.02

Sequence	switch fluorescence ratio
GACATTGTT	1.01
ATTTGCGTTG	1.02
CAAATGGTCG	1.03
AGTAGTGTGG	0.989
TTTACGATTT	0.997
TGTGGAGTAA	1.07
AGTACGCAGA	1.19
GCCCTCAGA	1.03
CAGCTACGT	1.01
CCTTACGCTG	1.24
CCCTCATTC	0.992
GGTAGACTTG	1.04
GATAGATAGT	1
CGGTTGAGGA	0.977
GGAGTGCATG	1.01
GAATGTTTAC	1.04
TTGTGATGAA	0.981
ACTGTGGGAG	1.15
GAATTCCTTT	1.03
